In all, about 310,000 compounds went through this assay and about 2,200 (0.71%) showed an effect of 50% or more. The effect is printed as a negative number. Some of the results follow.

human ether-à-go-go-related gene (hERG) potassium channel, sequence (Q12809 whole entry, looked up): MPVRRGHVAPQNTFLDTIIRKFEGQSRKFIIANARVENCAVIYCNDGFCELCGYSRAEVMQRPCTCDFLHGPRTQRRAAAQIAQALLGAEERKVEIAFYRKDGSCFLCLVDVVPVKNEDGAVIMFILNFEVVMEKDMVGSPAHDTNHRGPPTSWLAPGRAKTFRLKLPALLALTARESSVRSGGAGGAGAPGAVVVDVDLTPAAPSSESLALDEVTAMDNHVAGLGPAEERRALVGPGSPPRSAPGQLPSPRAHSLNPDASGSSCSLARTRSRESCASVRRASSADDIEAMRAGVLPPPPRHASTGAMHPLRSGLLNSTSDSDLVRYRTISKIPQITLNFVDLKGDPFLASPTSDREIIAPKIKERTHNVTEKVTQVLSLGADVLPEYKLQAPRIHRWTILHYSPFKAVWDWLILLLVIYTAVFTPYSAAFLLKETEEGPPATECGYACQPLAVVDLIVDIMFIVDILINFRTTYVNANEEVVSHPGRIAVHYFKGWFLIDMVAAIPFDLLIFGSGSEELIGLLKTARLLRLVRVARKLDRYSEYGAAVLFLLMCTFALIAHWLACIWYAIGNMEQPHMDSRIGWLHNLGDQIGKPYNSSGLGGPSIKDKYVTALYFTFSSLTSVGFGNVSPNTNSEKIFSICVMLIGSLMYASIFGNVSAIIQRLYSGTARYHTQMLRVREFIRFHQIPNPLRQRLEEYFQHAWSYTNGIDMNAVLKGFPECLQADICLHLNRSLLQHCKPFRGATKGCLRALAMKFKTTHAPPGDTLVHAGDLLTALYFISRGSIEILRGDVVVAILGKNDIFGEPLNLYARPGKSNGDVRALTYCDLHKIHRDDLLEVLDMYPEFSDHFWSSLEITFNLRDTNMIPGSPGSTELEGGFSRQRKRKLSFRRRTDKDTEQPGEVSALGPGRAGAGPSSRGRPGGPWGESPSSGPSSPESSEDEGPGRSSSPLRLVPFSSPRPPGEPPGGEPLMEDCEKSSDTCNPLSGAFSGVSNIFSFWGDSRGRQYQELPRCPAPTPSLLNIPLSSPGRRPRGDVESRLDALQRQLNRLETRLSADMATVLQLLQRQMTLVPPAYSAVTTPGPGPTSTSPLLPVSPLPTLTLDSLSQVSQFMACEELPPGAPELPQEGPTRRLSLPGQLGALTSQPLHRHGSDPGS

The assay concerns the target human ether-à-go-go-related gene (hERG) potassium channel (human, UniProt Q12809). Description: primary screen, population patch clamp on CHO cells stably expressing hERG.
Regarding `Cc1ccc(-c2nnn(CC(=O)N(CC(=O)NC(C)C)c3cnc4ccccc4c3)n2)o1`, the “hERG current change (%, negative = inhibition) at 1uM” value is 15.9%.
On to `CCc1ccc2[nH]c3nc(SCC(=O)NNC(=O)c4ccc(C(C)(C)C)cc4)nnc3c2c1`, for which the “hERG current change (%, negative = inhibition) at 1uM” value is recorded as -2.05%.
In the case of `O=C(Nc1ccc(Cc2ccc(NC(=O)N3CCOCC3)cc2)cc1)N1CCOCC1` it was 9.32%.
Consider `CN(C)S(=O)(=O)c1ccc(C(=O)NCC(=O)N/N=C/c2ccccc2Cl)cc1`, for which the “hERG current change (%, negative = inhibition) at 1uM” value amounted to 4.1%.
In the case of `CC1CCC(NC(=O)CCNS(=O)(=O)c2ccc3c(c2)CCC(=O)N3)CC1` (stereo not drawn) it was 7.82%.
For `Cl.O=C(O)C1=CCCN(CCON=C(c2ccccc2)c2ccccc2)C1`, the “hERG current change (%, negative = inhibition) at 1uM” value is given as 5.52%.
Then `COc1cc(OC)cc(C(=O)NCCNC(=O)c2ccccn2)c1`, with 11.8%.
Then `CCCn1c(SCC(=O)N2CCCCC2)nnc1C(C)C`, with 5.95%; and `CCN(CC)S(=O)(=O)c1cccc(NC(=O)/C=C/c2ccc([N+](=O)[O-])cc2)c1`, with 6.71%.
In the case of `COc1ccc2nc(NCCO)[nH]c2c1` it was 12.6%; in that of `CC(C)=CCc1c(C)nc2ccccc2c1C(=O)O`, 13.1%.
Regarding `CC1(C)CC(=O)C2=C(C1)OC(N)=C([N+](=O)[O-])C2c1ccc(F)cc1` (stereo not drawn), the “hERG current change (%, negative = inhibition) at 1uM” value was 13.6%.
With `CCCn1c(=O)c(C(=O)NNC(=O)c2ccc(Cl)cc2Cl)c(O)c2ccccc21`, the “hERG current change (%, negative = inhibition) at 1uM” value is listed as 1.62%.
In the case of `CC(C)(C)c1cc[n+](-c2[nH]c(=O)sc2/C=N/NC(=O)c2ccccc2[O-])cc1` it was 16.7%; in that of `OC[C@H]1O[C@@H](Oc2ccc3cc(Br)ccc3c2)[C@H](O)[C@@H](O)[C@H]1O`, 4.75%; in that of `O=C(CCCC(=O)c1ccccc1)Nc1ccc(F)cc1`, 11.3%.
Take `Cc1cccc2cc(CN(Cc3ccc(F)cc3)C(=O)C(F)(F)F)c3nnnn3c12`: the “hERG current change (%, negative = inhibition) at 1uM” value was found to be 30.5%.
On to `CCc1cccc(CC)c1NC(=O)C[n+]1cccc(C(N)=O)c1.[Cl-]`, for which the “hERG current change (%, negative = inhibition) at 1uM” value was determined as 8.4%.
Then `O=C1Nc2ccccc2C12OCCCO2`, with 3.36%; and `Cc1ccc(CNC(=O)CCNC(=O)Cn2ccc3ccccc3c2=O)cc1`, with 9.08%.
In the case of `Clc1ccc(NCc2cccnc2)c(Cl)c1` it was 13.5%; in that of `COc1ccc(CNC(=O)C(C#N)c2nc3ccccc3nc2N2CCN(C)CC2)cc1` (stereo not drawn), -8.5%.
In the case of `CC(C)OCCCNC(=O)COCC(=O)Nc1ccc(OCCc2ccccc2)cc1` it was 7.35%.
Regarding `O=C(COC(=O)c1c(Cl)ccc(Cl)c1Cl)NC(=O)NCc1ccccc1`, the “hERG current change (%, negative = inhibition) at 1uM” value came out at 12.7%.
Then `COc1ccc(-c2nnn(CC(=O)N3CCOCC3)n2)cc1`, with 6.27%; and `COc1cccc(NC(=S)NC(=O)c2cccnc2)c1`, with 13.7%.
For `Cc1ccc(N2C(=O)CC(C)(C)CC2=O)cc1Cl`, the “hERG current change (%, negative = inhibition) at 1uM” value worked out at 14%.
Consider `COc1ccc(OC)c(CN2CCN(C(=O)c3ccc(S(=O)(=O)Nc4ccccc4F)cc3)CC2)c1`, for which the “hERG current change (%, negative = inhibition) at 1uM” value came to 6.91%.
Then `COc1ccc(-c2cc(C(=O)N3CCN(c4ccccc4)CC3)c3ccccc3n2)cc1OC`, with 4.27%; and `O=C(Nc1ccncc1)c1ccc(Cl)c([N+](=O)[O-])c1`, with 2.42%; and `COc1ccc(C2C(C#N)=C(C)NC3=C2C(=O)CC(C)(C)C3)cc1` (stereo not drawn), with 2.72%.
Then `CCCCCC(=O)Nc1cccc(C2=NOC3(C2)C[C@@H](C(N)=O)N(C(=O)c2cc([N+](=O)[O-])cc([N+](=O)[O-])c2C)C3)c1` (stereo partly drawn), with 6.48%.
In the case of `C[C@H]([C@H](O)c1ccccc1)N(C)C(=O)CN` it was 15.3%.
For the molecule `CC(=O)N1CCN(c2ccc(NC(=O)C(c3ccccc3)c3ccccc3)cc2)CC1`, the “hERG current change (%, negative = inhibition) at 1uM” value came to 12.9%.
In the case of `N#CC(C#N)=NNc1ccc(S(=O)(=O)N2CCCCC2)cc1` it was -8.42%.
Then `COC(=O)C12CCC(C)(c3nc4ccccc4nc31)C2(C)C` (stereo not drawn), with 9.38%.
For `COCCC(=O)N1CCCC(C(=O)c2ccccc2SC)C1` (stereo not drawn), the “hERG current change (%, negative = inhibition) at 1uM” value is listed as 13.6%.
As for `COc1ccc(C(=O)Nc2c(-c3cccs3)c(=O)c3ccccc3n2C)cc1`, the “hERG current change (%, negative = inhibition) at 1uM” value is given as 8.93%.
Then `O=C(N/N=C/c1ccc(-c2cccc(C(F)(F)F)c2)o1)c1cccc(F)c1`, with 6.11%.
Then `O=C(c1ccc(S(=O)(=O)Cc2ccccc2Cl)c([N+](=O)[O-])c1)N1CCOCC1`, with 12.6%.
For `COc1ccc(CN(C(=O)c2cnccn2)C(C(=O)Nc2ccc(F)cc2)c2ccccc2)cc1` (stereo not drawn), the “hERG current change (%, negative = inhibition) at 1uM” value is on record as -15.7%.
Then `CCn1c(SCC(=O)Nc2nc(C)c(C(=O)OC)s2)nnc1C(C)C`, with 7.05%; and `NS(=O)(=O)c1ccc(N2CCN(CCOc3ccc(Cl)cc3)CC2)nc1`, with -34.5%.
In the case of `CCC(C)NC(=O)Cn1c(=O)n(-c2ccccc2)c(=O)c2ccc(C(=O)NCc3ccco3)cc21` (stereo not drawn) it was 2.41%; in that of `Cc1cc(C)nc(OC(C(=O)O)C(OCCC(C)C)(c2ccccc2)c2ccccc2)n1` (stereo not drawn), 10.8%.
Then `CCSC(=Nc1ccccc1)Nc1ccccc1`, with 11%; and `Cc1ccc(NC(=O)[C@@H](CC(C)C)NC(=O)[C@@H]2Cc3ccccc3CN2)cc1`, with 11.4%; and `COc1cccc(NC(=O)Nc2cc(Cl)ccc2C)c1`, with 19.7%.
On to `CN1CCN(C2CCN(Cc3ccc(O)c4ncccc34)CC2)CC1`, for which the “hERG current change (%, negative = inhibition) at 1uM” value is listed as 9.94%.
In the case of `O=C(CSc1ncn[nH]1)Nc1ccc(S(=O)(=O)Nc2ncccn2)cc1` it was 24.3%.
Regarding `O=C(NC1CCCC1)C(c1cccnc1)N(C(=O)c1csnn1)c1ccccc1` (stereo not drawn), the “hERG current change (%, negative = inhibition) at 1uM” value amounted to 9.37%.
Then `Cc1cc(/C=C(\C#N)C(=O)NCc2cccs2)c(C)n1-c1ccccc1F`, with 4.98%.
In the case of `Cc1ccc(Nc2ccc(C(N)=O)cc2[N+](=O)[O-])cc1` it was 15.9%; in that of `CCCCCn1c(=O)[nH]c2cc(C(=O)NCCCN(CC)CC)ccc2c1=O`, 1.39%.

Source of the values: paper PMC4336329 (PLoS ONE, 2015).
